# Experimental data as given in PubChem BioAssay AID463173 (ICCB-Longwood Screening Facility, Harvard Medical School, 2010).
# Screen size: about 52,000 compounds; about 4,300 (8.3%) were called active. Rule as the data show it: active = survival mostly below about 52% (no sharp cut-off); inactive = mostly above about 56%. This is one part of the list.
# Tested on: DeltatarO mutant
# Test: growth inhibition of S. aureus wild type versus tarO mutant, primary screen, teichoic acid synthesis inhibitors, RN4220, OD600 (AID 463173)
# Settings: OD600, 18 h, stronger effect = lower value, screened at 18.75 µg/mL (by protocol)
row,SMILES,survival
1,CCc1ccc2oc(-c3cc(NC(=O)C(C)C)cc(C)c3O)nc2c1,inactive: 92%
2,CC(C)Cn1c(=O)c2sccc2n2c(CCCC(=O)NCc3ccccc3Cl)nnc12,inactive: 76%
3,C(=N\N1CCN(c2ccccn2)CC1)/c1ccco1,inactive: 100%
4,Cc1cccc(-c2nc3c4ccccc4nc(NCc4ccc(Cl)cc4)n3n2)c1,active: 44%
5,CC(C)(C)OC(=O)N1C(C(=O)O)CSC1c1cccc(Br)c1 (stereo not given),inactive: 101%
6,CC(=O)c1ccc(NC(=O)CSc2cn(CC(=O)N3CCCCCC3)c3ccccc23)cc1,inactive: 101%
7,Oc1ccc(Cl)cc1C1=Nc2ccccc2N=C(c2cccc(Br)c2)C1,inactive: 151%
8,CN1CCN(c2nc3c(S(=O)(=O)c4ccc(Br)cc4)nnn3c3ccsc23)CC1,inactive: 58%
9,COc1ccc(CCNc2nc(C)nc3c2nnn3Cc2ccccc2)cc1OC,inactive: 90%
10,CCc1sc(Nc2cccc(Cl)c2C)nc1-c1cc2cccc(OC)c2oc1=O,inactive: 67%
11,O=C(Nc1ccccc1Cl)c1cccs1,inactive: 88%
12,COc1cccc(CN2CCc3nc(N4CCN(c5ncccn5)CC4)ncc3C2)c1,inactive: 96%
13,O=C(CC1C(=O)OCCN1Cc1ccccc1)Nc1cccc(C(F)(F)F)c1 (stereo not given),inactive: 74%
14,COc1ccc(OC)c(NC(=O)c2cc(CN3CCCC3)on2)c1,inactive: 101%
15,COc1cccc(CNC(=O)C2CCN(S(=O)(=O)c3cn(C)cn3)CC2)c1,inactive: 72%
16,CC(=O)N1c2ccc(S(=O)(=O)N3CCCCCC3)cc2CC1C(=O)NCc1ccc(Cl)cc1 (stereo not given),inactive: 89%
17,C=C(C)C1CC=C(C)/C(=N/NC(=O)c2ccncc2)C1 (stereo not given),inactive: 124%
18,CCOC(=O)N1CCC(NC(=O)c2cnn(-c3cccc(Cl)c3C)c2C2CCN(C(=O)OC(C)(C)C)CC2)CC1,active: 20%
19,CCOc1ccc(NC(=O)Cn2ccn(-c3ccc(F)c(F)c3)c(=O)c2=O)cc1,inactive: 103%
20,COc1ccc(CNC(=O)c2cccc(-n3cnc4cccnc43)c2C)cc1,inactive: 90%
21,COc1cccc(C(=O)Nc2ccc(-c3cn4cccnc4n3)cc2)c1OC,inactive: 127%
22,CCOCCSc1c(C)cnc2c1c(=O)n(C)c(=O)n2C,inactive: 90%
23,Cc1ccc2c(c1)cc(CN(Cc1ccco1)C(=O)c1ccccc1)c1nnnn12,inactive: 98%
24,Cc1ccc(N2C(=O)c3[nH]nc(-c4ccc(Cl)cc4)c3C2c2ccc(F)cc2)cc1 (stereo not given),active: 44%
25,COc1cc2ccccc2cc1C(=O)Nc1ccc(Cl)c(-c2nc3ccccc3o2)c1,active: 40%
